{
  "source": "the supplement of paper PMC8728848",
  "binders": {"B1": {"name": "ClecSol-Fc (Cryptosporidium parvum) (protein)", "chain": "CPEGWISNGEKTRCFKLVTFDRPRTFSHGFKACNDLGGTEVETRRRNGSKETNEYPVTLASVYKLSDEEAIRRTLVEQGDIHKTANGCFVGLRKYAFFRYPPGWYWIDSGSPVSVRDSEINWTSSYNASWLLRFKFPFEKCGFFDIGGLGRRPCWLIDSELSCAVCGTVAYDSGGLNPNKYSELIKQTDEIISKEPKLDLPGYNNLNCTDAWENNLSVGLCQNVSNILDSAWSSYQSSLNFPSINFNWKEDSTNEGGDQVYHNSYLDLPRYKQKKTFYWDQDPGTIPALSDEMKLIGLSAQPTYHPLDRSSSGSFESDSTESGRANEERNDTLEEMIYKQSSDSIEDILVPVTKPIFSDYSSIGRNSGVEEVYSSNVSTISSKGVVFPNTTTSSDNDFTKNNPANSSKHTSTSTTTNTTTTTTRTTTTTTTTTTTTTTTTTTTTETTTTKKSTTATKNTTTT"}},
  "assay_in_all_cases": "glycan array binding signal (z-score within array); higher = stronger binding",
  "details_in_all_cases": "glycan notation: IUPAC condensed, linker removed",
  "key": {"[1]": {"molecular_target": "Fuc(a1-2)Gal(b1-4)GlcNAc(b1-3)Gal(b1-4)GlcNAc(b1-3)Gal(b1-4)GlcNAc", "method_in_brief": "(§1)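 The binding signal is a Z-score computed within each array. Data were drawn from 3228 arrays in the Consortium for Functional Glycomics database, restricted to those with a known protein sequence. Scores were averaged over arrays of the same protein sequence at different concentrations or buffers, and over linkers, and negative values can be taken as non-binding.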"}, "[2]": {"molecular_target": "Fuc(a1-2)Gal(b1-4)GlcNAc(b1-3)GalNAc", "method_in_brief": "as §1"}, "[3]": {"molecular_target": "Fuc(a1-2)Gal(b1-4)GlcNAc(b1-3)[Fuc(a1-2)Gal(b1-4)GlcNAc(b1-6)]GalNAc", "method_in_brief": "as §1"}, "[4]": {"molecular_target": "Fuc(a1-2)Gal(b1-4)GlcNAc(b1-3)[Fuc(a1-3)[Gal(b1-4)]GlcNAc(b1-6)]Gal(b1-4)Glc", "method_in_brief": "as §1"}, "[5]": {"molecular_target": "Fuc(a1-2)Gal(b1-4)GlcNAc(b1-6)GalNAc", "method_in_brief": "as §1"}, "[6]": {"molecular_target": "Fuc(a1-2)Gal(b1-4)GlcNAc6S", "method_in_brief": "as §1"}, "[7]": {"molecular_target": "Fuc(a1-2)Gal(b1-4)[Fuc(a1-3)]GlcNAc", "method_in_brief": "as §1"}, "[8]": {"molecular_target": "Fuc(a1-2)Gal(b1-4)[Fuc(a1-3)]GlcNAc(b1-2)Man(a1-3)[Fuc(a1-2)Gal(b1-4)[Fuc(a1-3)]GlcNAc(b1-2)Man(a1-6)]Man(b1-4)GlcNAc(b1-4)[Fuc(a1-6)]GlcNAc", "method_in_brief": "as §1"}, "[9]": {"molecular_target": "Fuc(a1-2)Gal(b1-4)[Fuc(a1-3)]GlcNAc(b1-2)[Fuc(a1-2)Gal(b1-4)[Fuc(a1-3)]GlcNAc(b1-4)]Man(a1-3)[Fuc(a1-2)Gal(b1-4)[Fuc(a1-3)]GlcNAc(b1-2)Man(a1-6)]Man(b1-4)GlcNAc(b1-4)GlcNAc", "method_in_brief": "as §1"}, "[10]": {"molecular_target": "Fuc(a1-2)Gal(b1-4)[Fuc(a1-3)]GlcNAc(b1-3)Gal(b1-4)[Fuc(a1-3)]GlcNAc", "method_in_brief": "as §1"}, "[11]": {"molecular_target": "Fuc(a1-2)Gal(b1-4)[Fuc(a1-3)]GlcNAc(b1-3)Gal(b1-4)[Fuc(a1-3)]GlcNAc(b1-3)Gal(b1-4)[Fuc(a1-3)]GlcNAc", "method_in_brief": "as §1"}, "[12]": {"molecular_target": "Fuc(a1-2)Gal(b1-4)[Fuc(a1-3)]GlcNAc(b1-3)GalNAc", "method_in_brief": "as §1"}, "[13]": {"molecular_target": "Fuc(a1-2)Gal(b1-4)[Fuc(a1-3)]GlcNAc(b1-3)[Neu5Ac(a2-6)Gal(b1-4)GlcNAc(b1-6)]Gal(b1-4)Glc", "method_in_brief": "as §1"}, "[14]": {"molecular_target": "Fuc(a1-2)Gal3S(b1-4)GlcNAc", "method_in_brief": "as §1"}, "[15]": {"molecular_target": "Fuc(a1-2)Gal6S(b1-3)GlcNAc", "method_in_brief": "as §1"}, "[16]": {"molecular_target": "Fuc(a1-2)Gal6S(b1-3)GlcNAc6S", "method_in_brief": "as §1"}, "Fuc(a1-2)Gal6S(b1-4)Glc": {"molecular_target": "Fuc(a1-2)Gal6S(b1-4)Glc", "method_in_brief": "as §1"}, "[17]": {"molecular_target": "Fuc(a1-2)Gal6S(b1-4)Glc6S", "method_in_brief": "as §1"}, "Fuc(a1-2)[Gal(a1-3)]Gal": {"molecular_target": "Fuc(a1-2)[Gal(a1-3)]Gal", "method_in_brief": "as §1"}, "[18]": {"molecular_target": "Fuc(a1-2)[Gal(a1-3)]Gal(b1-3)GalNAc", "method_in_brief": "as §1"}, "[19]": {"molecular_target": "Fuc(a1-2)[Gal(a1-3)]Gal(b1-3)GalNAc(b1-3)Gal(a1-4)Gal(b1-4)Glc", "method_in_brief": "as §1"}, "[20]": {"molecular_target": "Fuc(a1-2)[Gal(a1-3)]Gal(b1-3)GlcNAc", "method_in_brief": "as §1"}, "[21]": {"molecular_target": "Fuc(a1-2)[Gal(a1-3)]Gal(b1-3)GlcNAc(b1-2)Man(a1-3)[Fuc(a1-2)[Gal(a1-3)]Gal(b1-3)GlcNAc(b1-2)Man(a1-6)]Man(b1-4)GlcNAc(b1-4)GlcNAc", "method_in_brief": "as §1"}, "[22]": {"molecular_target": "Fuc(a1-2)[Gal(a1-3)]Gal(b1-3)GlcNAc(b1-2)Man(a1-3)[Fuc(a1-2)[Gal(a1-3)]Gal(b1-3)GlcNAc(b1-2)Man(a1-6)]Man(b1-4)GlcNAc(b1-4)[Fuc(a1-6)]GlcNAc", "method_in_brief": "as §1"}, "[23]": {"molecular_target": "Fuc(a1-2)[Gal(a1-3)]Gal(b1-3)GlcNAc(b1-3)GalNAc", "method_in_brief": "as §1"}, "[24]": {"molecular_target": "Fuc(a1-2)[Gal(a1-3)]Gal(b1-3)GlcNAc(b1-6)GalNAc", "method_in_brief": "as §1"}, "[25]": {"molecular_target": "Fuc(a1-2)[Gal(a1-3)]Gal(b1-4)Glc", "method_in_brief": "as §1"}, "[26]": {"molecular_target": "Fuc(a1-2)[Gal(a1-3)]Gal(b1-4)GlcNAc", "method_in_brief": "as §1"}, "[27]": {"molecular_target": "Fuc(a1-2)[Gal(a1-3)]Gal(b1-4)GlcNAc(b1-2)Man", "method_in_brief": "as §1"}, "[28]": {"molecular_target": "Fuc(a1-2)[Gal(a1-3)]Gal(b1-4)GlcNAc(b1-2)Man(a1-3)[Fuc(a1-2)[Gal(a1-3)]Gal(b1-4)GlcNAc(b1-2)Man(a1-6)]Man(b1-4)GlcNAc(b1-4)GlcNAc", "method_in_brief": "as §1"}},
  "note": "Some of the results follow.",
  "data": [
    {"binder": "B1", "values": [
      {"measurement": "glycan array binding signal (z-score)", "setting": "[1]", "result": -0.03},
      {"measurement": "glycan array binding signal (z-score)", "setting": "[2]", "result": -0.207},
      {"measurement": "glycan array binding signal (z-score)", "setting": "[3]", "result": -0.098},
      {"measurement": "glycan array binding signal (z-score)", "setting": "[4]", "result": 0.13},
      {"measurement": "glycan array binding signal (z-score)", "setting": "[5]", "result": 0.51},
      {"measurement": "glycan array binding signal (z-score)", "setting": "[6]", "result": -0.009},
      {"measurement": "glycan array binding signal (z-score)", "setting": "[7]", "result": -0.209},
      {"measurement": "glycan array binding signal (z-score)", "setting": "[8]", "result": 0.119},
      {"measurement": "glycan array binding signal (z-score)", "setting": "[9]", "result": 0.069},
      {"measurement": "glycan array binding signal (z-score)", "setting": "[10]", "result": -0.071},
      {"measurement": "glycan array binding signal (z-score)", "setting": "[11]", "result": -0.192},
      {"measurement": "glycan array binding signal (z-score)", "setting": "[12]", "result": -0.234},
      {"measurement": "glycan array binding signal (z-score)", "setting": "[13]", "result": -0.133},
      {"measurement": "glycan array binding signal (z-score)", "setting": "[14]", "result": -0.19},
      {"measurement": "glycan array binding signal (z-score)", "setting": "[15]", "result": -0.025},
      {"measurement": "glycan array binding signal (z-score)", "setting": "[16]", "result": 0.296},
      {"measurement": "glycan array binding signal (z-score)", "setting": "Fuc(a1-2)Gal6S(b1-4)Glc", "result": 0.012},
      {"measurement": "glycan array binding signal (z-score)", "setting": "[17]", "result": -0.047},
      {"measurement": "glycan array binding signal (z-score)", "setting": "Fuc(a1-2)[Gal(a1-3)]Gal", "result": -0.175},
      {"measurement": "glycan array binding signal (z-score)", "setting": "[18]", "result": -0.154},
      {"measurement": "glycan array binding signal (z-score)", "setting": "[19]", "result": -0.109},
      {"measurement": "glycan array binding signal (z-score)", "setting": "[20]", "result": -0.158},
      {"measurement": "glycan array binding signal (z-score)", "setting": "[21]", "result": 0.149},
      {"measurement": "glycan array binding signal (z-score)", "setting": "[22]", "result": -0.154},
      {"measurement": "glycan array binding signal (z-score)", "setting": "[23]", "result": 0.014},
      {"measurement": "glycan array binding signal (z-score)", "setting": "[24]", "result": -0.233},
      {"measurement": "glycan array binding signal (z-score)", "setting": "[25]", "result": -0.011},
      {"measurement": "glycan array binding signal (z-score)", "setting": "[26]", "result": -0.184},
      {"measurement": "glycan array binding signal (z-score)", "setting": "[27]", "result": -0.094},
      {"measurement": "glycan array binding signal (z-score)", "setting": "[28]", "result": -0.245}
    ]}
  ]
}
